Measurements as given in PubChem BioAssay AID588855 (National Center for Advancing Translational Sciences (NCATS), 2011).
About 5,000 (1.2%) of roughly 410,000 compounds were called active. The shares of active, inactive and inconclusive entries below differ from those in the screen. The call rests on the fitted dose curve; in most records, active means well fitted inhibition curve with a large enough effect; inconclusive means small, poorly fitted or top-dose-only effect; inactive means no such curve, though single readings can be large or run the other way. Where the call is inconclusive, the potency comes from a doubtful curve fit.

Test: qHTS for Inhibitors of TGF-b; further: nearly all actives have a fitted effect of over 65% in size
Conditions: HepG2 CAGA-GFP TGF-b/SMAD3 reporter, GFP fluorescence, 18 h, TGF-beta stimulated, 500 pg/mL final; series mostly up to 46.1 µM
Outline: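 TGF-beta reporter screen: HEPG2 CAGA-GFP, 1% FBS, 500 pg/mL TGF-beta final, 18 h; per-cell GFP summed per well; curves fitted and categorized by class.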
Potency means the concentration at half of the fitted maximal effect; tags describe the fitted curve by direction and shape.

Question: Which Potency does the source give for `Cn1c(SCC(=O)N2CCN(c3ccccc3)CC2)nnc1-c1c[nH]c2ccccc12` here?
Answer: inconclusive: 12.6 µM [inhibitor, single point]

Question: With `C[C@@H]1CN([C@H](C)CO)S(=O)(=O)c2ccc(Br)cc2O[C@@H]1CN(C)Cc1ccc(-c2ccccc2)cc1` as the compound, how does the Potency read?
Answer: active: 15.8 µM

Question: With `CCCOc1ccc2ccccc2c1/C=N/n1cnnc1` as the compound, how does the Potency read?
Answer: inconclusive: 11.2 µM [inhibitor, partial curve, poor fit]

Question: With `CCOC(=O)C1=C(C)N=C2c3ccccc3C(=O)C2C1c1ccc(Cl)cc1` (stereo not given) as the compound, how does the Potency read?
Answer: inconclusive: 12.6 µM [inhibitor, partial curve, poor fit]

Question: For `N#Cc1ccc(N2CCOCC2)c([N+](=O)[O-])c1`, which Potency is on record?
Answer: inconclusive: 3.55 µM [inhibitor, single point]

Question: For `O=c1cc(-c2ccc(O)c(O)c2)oc2c(C3O[C@H](CO)[C@@H](O)[C@H](O)[C@H]3O)c(O)cc(O)c12` (stereo not given in full), which Potency is on record?
Answer: inactive

Question: With `Cc1ccc(C(=O)OCC(=O)c2cc(C)n(CC3CCCO3)c2C)cc1` (stereo not given) as the compound, how does the Potency read?
Answer: inactive

Question: For `COc1ccc(S(=O)(=O)n2nc(OC(=O)c3ccc(C)cc3)cc2N)cc1`, which Potency is on record?
Answer: inactive

Question: For `CCc1nc2ccc(C(=O)Nc3ccc4c(c3)OCC(=O)N4)cn2c1N(CC)Cc1cccc(Br)c1`, which Potency is on record?
Answer: inconclusive: 35.5 µM [inhibitor, single point]

Question: With `O=S(=O)(NC1CCN(S(=O)(=O)c2c(F)cccc2F)C1)c1ccc2c(c1)OCCO2` (stereo not given) as the compound, how does the Potency read?
Answer: inconclusive: 0.141 µM [inhibitor, full curve, poor fit]

Question: For `c1ccc(OCCNc2nc(NCC3CC3)nc3ccsc23)cc1`, which Potency is on record?
Answer: inconclusive: 35.5 µM [inhibitor, single point]

Question: For `COc1ccc(NC(=O)c2cccc(OC(=S)N3CCOCC3)c2)cc1`, which Potency is on record?
Answer: inconclusive: 7.94 µM [inhibitor, partial curve, poor fit]

Question: For `Cc1ccc2nc(/C(C#N)=C\c3ccc(Oc4ccc(C(F)(F)F)cc4[N+](=O)[O-])cc3)[nH]c2c1`, which Potency is on record?
Answer: inconclusive: 15.8 µM [inhibitor, partial curve]

Question: With `CCCCN(CC)Cc1ccc(CNC(=S)Nc2cccc(F)c2)o1` as the compound, how does the Potency read?
Answer: inactive

Question: Which Potency does the source give for `CCOC(=O)C1=C(CN(CC)Cc2ccccc2)NC(=O)NC1c1ccc(OC(C)C)cc1` (stereo not given) here?
Answer: active: 14.1 µM

Question: With `CSc1ccc(S(=O)(=O)Nc2ccc3c4c(cccc24)CC3)cc1` as the compound, how does the Potency read?
Answer: inconclusive: 35.5 µM [inhibitor, single point]

Question: For `Cc1ccc2c(c1)NC(=O)C(CC(=O)NCCCN1CCCC1)O2` (stereo not given), which Potency is on record?
Answer: inconclusive: 22.4 µM [inhibitor, single point]

Question: With `Cn1cc(CN2CCN(c3ccccc3)CC2)c2ccccc21` as the compound, how does the Potency read?
Answer: inactive

Question: With `CCOc1ccc(CCNC(=O)c2[nH]c3cc(OC)ccc3c2Sc2ccccc2)cc1OCC` as the compound, how does the Potency read?
Answer: inactive

Question: With `Cc1ccc(OCCOc2ccc(Br)cc2/C=N\NC(N)=O)cc1` as the compound, how does the Potency read?
Answer: inconclusive: 35.5 µM [inhibitor, single point]

Question: For `NC(Cc1ccc(F)cc1)c1csc(Nc2cc(NCc3ccco3)ncn2)n1` (stereo not given), which Potency is on record?
Answer: inconclusive: 14.1 µM [inhibitor, partial curve, poor fit]

Question: Which Potency does the source give for `Cc1cn(CC(=O)NCC(c2ccccc2)c2ccccc2)c(=O)[nH]c1=O` here?
Answer: inactive

Question: With `O=C(NC1=C(Nc2ccc(F)cc2)C(=O)c2ccccc2C1=O)c1ccc(Cl)cc1` as the compound, how does the Potency read?
Answer: active: 11.2 µM

Question: With `CCOc1ccccc1-n1nnnc1SCC(=O)N1CCCC1=O` as the compound, how does the Potency read?
Answer: inactive

Question: For `Oc1ccc(C(=S)N2CCN(c3cccc(Cl)c3)CC2)cc1`, which Potency is on record?
Answer: inconclusive: 8.91 µM [inhibitor, partial curve, poor fit]

Question: With `CCCCCCCCNc1nc(Cl)nc(NCc2ccco2)n1` as the compound, how does the Potency read?
Answer: inactive

Question: Which Potency does the source give for `COc1ccc(CNC(=O)c2ccc(CS(=O)(=O)Cc3ccccc3F)o2)cc1` here?
Answer: inactive

Question: For `O=C(N/N=C/c1cccc([N+](=O)[O-])c1)C1CC(=O)N(c2ccc(F)cc2)C1` (stereo not given), which Potency is on record?
Answer: inconclusive: 3.16 µM [inhibitor, full curve]

Question: Which Potency does the source give for `Cc1ccc(-c2csc3n[nH]c(=S)n23)cc1` here?
Answer: inactive

Question: Which Potency does the source give for `Cc1ccc(CN2CC(C(=O)Nc3ncc(C)s3)CC2=O)cc1` (stereo not given) here?
Answer: inconclusive: 15.8 µM [inhibitor, partial curve, poor fit]

Question: With `CN(C)C(CNC(=O)CCCN1C(=O)c2cccc3cccc(c23)C1=O)c1ccccc1` (stereo not given) as the compound, how does the Potency read?
Answer: inactive

Question: Which Potency does the source give for `O=C(Cn1cnc2c(cnn2-c2ccc(F)cc2)c1=O)N1CCCc2ccccc21` here?
Answer: inconclusive: 35.5 µM [inhibitor, single point]

Question: For `CCOC(=O)c1ccc(N2C(=O)c3n[nH]c(-c4ccco4)c3C2c2ccc(F)cc2)cc1` (stereo not given), which Potency is on record?
Answer: inconclusive: 5.62 µM [inhibitor, partial curve, poor fit]

Question: Which Potency does the source give for `COc1ccccc1CNC(=O)C(CC(C)C)N1Cc2ccccc2C1=O` (stereo not given) here?
Answer: inactive

Question: For `NC(=O)N/N=C/c1ccccc1OCC(=O)NCc1ccccc1`, which Potency is on record?
Answer: inconclusive: 5.62 µM [inhibitor, single point]

Question: For `COc1ccc(-c2csc(N(CC3CCCO3)C(=O)c3ccc(C)cc3)n2)cc1` (stereo not given), which Potency is on record?
Answer: inconclusive: 0.562 µM [inhibitor, full curve, poor fit]

Question: For `O=C(NCC1CC1)c1cc(-c2ccccc2)nn1CC1CC(c2cccc([N+](=O)[O-])c2)=NO1` (stereo not given), which Potency is on record?
Answer: inconclusive: 3.16 µM [inhibitor, partial curve, poor fit]

Question: Which Potency does the source give for `COc1ccc(CN2CCSc3sccc3C2=O)cc1` here?
Answer: inactive

Question: Which Potency does the source give for `CCOC(=O)/C=C1\CN(Cc2ccc(OC)cc2)S(=O)(=O)c2ccccc21` here?
Answer: inconclusive: 25.1 µM [inhibitor, single point]

Question: Which Potency does the source give for `CN1CCN(S(=O)(=O)c2cnccc2N2CCN(c3cccc(Cl)c3)CC2)CC1` here?
Answer: inactive

Question: For `O=C(Cc1csc(NC(=O)Nc2ccc(Cl)cc2)n1)NC1CCCC1`, which Potency is on record?
Answer: active: 11.2 µM

Question: Which Potency does the source give for `Cc1nc(C(=O)Nc2cccc(Cl)c2)nn1-c1cc(OC(C)C)c(Cl)cc1Cl` here?
Answer: inconclusive: 35.5 µM [inhibitor, single point]

Question: Which Potency does the source give for `CCOc1ccc(CCNC(=O)c2cnc3sc(N4CCCCCC4)nn3c2=O)cc1` here?
Answer: inactive

Question: With `Cc1nc(Oc2ccccc2)c2ccccc2n1` as the compound, how does the Potency read?
Answer: inactive

Question: With `O=C(CNc1cccc(S(=O)(=O)N2CCCC2)c1)Nc1cccc(Br)c1` as the compound, how does the Potency read?
Answer: inconclusive: 3.55 µM [inhibitor, single point]
